# Assay results: PubChem BioAssay AID624417 (National Center for Advancing Translational Sciences (NCATS), 2012)
# Values joined by “and” are separate entries in the source; they are usually repeats but may differ in a detail not shown here. Identical values can stand only once. Screen size: about 410,000 compounds; about 6,400 (1.6%) were called active. The inconclusive results got no clear call from the source; some entries with a clear call stand among them for comparison. The call rests on the fitted dose curve; in most records, active means well fitted inhibition curve with a large enough effect; inconclusive means small, poorly fitted or top-dose-only effect; inactive means no such curve, though single readings can be large or run the other way. Potencies beside an inconclusive call are fits to weak or partial responses and may not hold up.
# Biological target: Glucagon-like peptide 1 receptor (Homo sapiens) (UniProt P43220)
# Test: qHTS of GLP-1 Receptor Inverse Agonists (Inhibition Mode); further: nearly all actives have a fitted effect of over 55% in size
# Conditions: HEK293 GLP-1R CRE-luciferase, luminescence, 24 h, GLP-1R form is constitutively active; series mostly up to 38.3 µM
# Summary of the method: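 Inverse agonism was detected as reduced cAMP-driven luciferase luminescence after 24 h compound treatment. The cells were HEK293 clones expressing constitutively active human GLP-1R with the reporter. Reporter-only and GPR119 cell lines served as counterscreen controls.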
# Potency means the concentration at half of the fitted maximal effect; tags describe the fitted curve by direction and shape.
# UniProt P43220, sequence (P43220 whole entry, looked up): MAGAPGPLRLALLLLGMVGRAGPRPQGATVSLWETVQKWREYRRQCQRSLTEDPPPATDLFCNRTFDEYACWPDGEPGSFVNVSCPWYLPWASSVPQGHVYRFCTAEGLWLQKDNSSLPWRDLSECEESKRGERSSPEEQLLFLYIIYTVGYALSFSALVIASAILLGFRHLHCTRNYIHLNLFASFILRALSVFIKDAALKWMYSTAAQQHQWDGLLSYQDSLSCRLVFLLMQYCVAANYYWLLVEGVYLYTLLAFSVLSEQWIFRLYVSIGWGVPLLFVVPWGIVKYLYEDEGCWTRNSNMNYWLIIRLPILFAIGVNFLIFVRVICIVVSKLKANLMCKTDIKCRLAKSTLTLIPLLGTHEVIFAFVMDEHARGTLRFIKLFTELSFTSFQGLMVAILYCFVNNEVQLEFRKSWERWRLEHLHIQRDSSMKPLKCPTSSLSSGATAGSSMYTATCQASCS
row,Compound,Potency
1,CC(C)NC(=O)CSc1nnc(C2CC2)n1-c1ccccc1,inactive
2,COc1cc(C)ccc1OCCOCCOc1cccc2ccc(C)nc12,"inconclusive: 10 µM [inhibitor, partial curve, poor fit]"
3,CC(C)c1nnc(NC(=O)CC(=O)Nc2ccccc2C(=O)O)s1,"inconclusive: 8.91 µM [inhibitor, partial curve]"
4,CSC[C@H]1CN(c2ccccc2)C(=O)[C@@H]1CC(=O)Nc1ccc(Br)cc1,"inconclusive: 10 µM [inhibitor, single point]"
5,Cc1ccc(-n2[nH]c(C)c(/C=N/N3C(=O)c4cccc5cccc(c45)C3=O)c2=O)cc1,"inconclusive: 28.2 µM [inhibitor, single point]"
6,CCOc1cccc2sc(N(CCN(CC)CC)C(=O)c3ccco3)nc12,"inconclusive: 1 µM [inhibitor, full curve, poor fit]"
7,O=C(Nc1cccc(-c2ccc(N3CCCCC3)nn2)c1)C(F)(F)F,"inconclusive: 5.62 µM [inhibitor, full curve, poor fit]"
8,COc1ccc(CCNCC2C(Oc3ccc(Cl)cc3)C(=O)N2c2ccccc2C)cc1OC (stereo unspecified),"inconclusive: 10 µM [inhibitor, partial curve, poor fit]"
9,Cc1ccc2nc(-c3ccc(NC(=S)NC(=O)C(C)C)cc3)sc2c1,inactive
10,CCCCCCN1C[C@@H](n2cc(-c3ccc(F)cc3)nn2)[C@H](O)C[C@@H]1c1ccccc1,"inconclusive: 14.1 µM [inhibitor, partial curve, poor fit]"
11,COc1cccc(C(=O)OC2CCN(C)CC2)c1,"inconclusive: 7.94 µM [inhibitor, partial curve, poor fit]"
12,Cc1ccc(Cl)cc1N1CCN(C(=O)CN(c2ccccc2)S(=O)(=O)N(C)C)CC1,"inconclusive: 22.4 µM [inhibitor, single point]"
13,COc1cccc(CNC(=O)c2ccc(NC(=O)N3CC(C)Sc4ccccc43)cc2)c1 (stereo unspecified),"inconclusive: 14.1 µM [inhibitor, single point]"
14,Cc1ccccc1Nc1c(-c2ccncc2)nc2ccc(Cl)cn12,"inconclusive: 10 µM [inhibitor, single point] and inconclusive: 10 µM [inhibitor, partial curve]"
15,O=C(Nc1ccc(Cl)cc1)Nc1ccc(N2CCCC2)c(S(=O)(=O)Nc2ccccc2Cl)c1,"inconclusive: 2.51 µM [inhibitor, full curve, poor fit]"
16,COc1ccccc1N1CCN(C(=O)COc2ccc(Cl)cc2Br)CC1,"inconclusive: 3.16 µM [inhibitor, partial curve, poor fit]"
